Data taken from the supplement of paper PMC3334620.
Whole data set: some 33,000 sequences, median “E-score (-0.5 to 0.5)” near -0.021, cut for the highest 2% near 0.32. The list shows a part of the results.

Molecular target: T1, Zap1 (UniProt P47043)
T1 sequence: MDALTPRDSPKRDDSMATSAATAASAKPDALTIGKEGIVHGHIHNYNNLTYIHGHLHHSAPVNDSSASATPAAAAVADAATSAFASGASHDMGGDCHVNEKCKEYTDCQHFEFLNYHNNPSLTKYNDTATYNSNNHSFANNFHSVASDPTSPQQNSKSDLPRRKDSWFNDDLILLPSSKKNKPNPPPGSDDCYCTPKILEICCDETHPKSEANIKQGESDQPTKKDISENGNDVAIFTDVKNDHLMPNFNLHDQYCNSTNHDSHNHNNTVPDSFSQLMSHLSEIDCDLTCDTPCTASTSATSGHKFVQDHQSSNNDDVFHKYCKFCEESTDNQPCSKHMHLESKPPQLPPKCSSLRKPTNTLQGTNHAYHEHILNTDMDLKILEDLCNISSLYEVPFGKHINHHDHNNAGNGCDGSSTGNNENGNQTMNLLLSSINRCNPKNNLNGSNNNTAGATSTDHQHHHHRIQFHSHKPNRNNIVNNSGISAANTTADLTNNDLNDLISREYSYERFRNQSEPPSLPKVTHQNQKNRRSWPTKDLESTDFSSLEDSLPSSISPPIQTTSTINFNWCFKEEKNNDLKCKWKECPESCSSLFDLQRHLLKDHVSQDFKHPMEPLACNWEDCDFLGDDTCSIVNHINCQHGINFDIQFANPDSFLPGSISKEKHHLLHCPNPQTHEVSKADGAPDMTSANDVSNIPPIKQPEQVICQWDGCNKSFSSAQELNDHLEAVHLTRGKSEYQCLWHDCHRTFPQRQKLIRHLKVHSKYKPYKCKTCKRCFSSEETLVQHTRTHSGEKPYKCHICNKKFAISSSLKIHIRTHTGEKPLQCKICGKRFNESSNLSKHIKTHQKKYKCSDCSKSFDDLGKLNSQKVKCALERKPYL
Test: PBM E-score (8-mer binding enrichment) (E-score (-0.5 to 0.5)); higher = stronger / more preferred TF binding; most listed sequences are background and not binding sites
Conditions: protein concentration: 200 nM; construct: GST-full length
How it was run: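 Full-length yeast transcription factors or their DNA-binding domains, GST-tagged and expressed with PURExpress, were applied at about 100-200 nM to universal all-10-mer Agilent arrays. These arrays had been made double-stranded by primer extension on fresh or once-stripped slides. Detection used fluorescent anti-GST, normalisation used masliner, and E-scores for ungapped eight-base words pooled with reverse complements came from the Universal PBM Analysis Suite.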

| Sequence | PBM E-score |
| --- | --- |
| CAATAGAC | -0.1 |
| ACATCCCA | -0.0423 |
| CGACCCTC | 0.153 |
| GGCTTTGA | 0.00037 |
| AAGGCGTG | -0.19 |
| AACTAAGG | 0.017 |
| GACGCCCA | 0.029 |
| AGGCGAAC | -0.116 |
| CTAATAAA | 0.119 |
| GAGAAGCA | -0.207 |
| GCTAAGTA | -0.0328 |
| CCTTTGCA | 0.0267 |
| AGCTGACA | 0.00773 |
| AGCGGCCT | 0.1 |
| CCGTATTC | 0.0688 |
| ACGCTCGA | -0.134 |
| AGTTGTAG | 0.0534 |
| GCTGCGCA | -0.346 |
| ACAAGGGA | -0.00241 |
| AGTAAGAG | -0.0194 |
| AACATAGG | 0.113 |
| CACACCGC | -0.0381 |
| TAAACTGA | 0.118 |
| GCGTCACA | -0.0785 |
| CCTCCAAA | 0.0685 |

| Sequence | PBM E-score |
| --- | --- |
| ACGTCGGC | -0.347 |
| ACCGCACA | 0.0798 |
| ACCTATTC | 0.0722 |
| AAAGGCTA | 0.0247 |
| GATTCTAA | -0.0858 |
| GTCATTGA | 0.0457 |
| AAATCGGA | 0.00386 |
| AAGTCCGG | -0.0828 |
| ATCTATCG | -0.167 |
| ACGGAGCT | -0.178 |
| AAGCCCCA | -0.198 |
| ATTTTCTG | -0.0611 |
| ATAACTGC | 0.0306 |
| AGCAAGTC | -0.151 |
| GTAACACA | 0.156 |
| CGGACTGA | -0.154 |
| CGCCCCTA | 0.0687 |
| AACAGTAG | -0.18 |
| ACGACGTC | -0.18 |
| CAAGAGAA | -0.00247 |
| CGTACTGA | 0.00053 |
| GGACTAAA | 0.0586 |
| CGATCGGC | -0.112 |
| AATCAGAG | 0.0208 |
| AAAGTCGC | 0.175 |

| Sequence | PBM E-score |
| --- | --- |
| ATGGGCAG | -0.125 |
| CCAAACGA | 0.0751 |
| CCCGAAGA | -0.173 |
| GCGAGAAC | -0.0902 |
| TACGGCCA | -0.0117 |
| GCATCCGA | -0.212 |
| AGTCGACC | -0.0961 |
| ACAGCACA | 0.0162 |
| GCCCCGCA | -0.123 |
| CGGCTTTA | -0.0865 |
| ATCTGTAA | 0.0578 |
| ACTTAGCT | -0.253 |
| ACCTGTCT | -0.112 |
| AACTAACG | 0.166 |
| GCCTAGGA | -0.246 |
| CTGCTTGC | -0.145 |
| CAATTGAG | 0.0158 |
| ACACCCCG | -0.0428 |
| CAGAATGA | -0.0427 |
| GAAATGAA | 0.202 |
| AACCATTG | 0.271 |
| ATCCTTGC | -0.141 |
| AATTACCC | 0.272 |
| CCAAAGCA | 0.109 |
| CCAGAACC | 0.304 |

| Sequence | PBM E-score |
| --- | --- |
| CCCTAGCA | 0.105 |
| GCTCTGCC | -0.352 |
| CTATAGAC | -0.0446 |
| GTGTAGAA | -0.141 |
| CGACGAAG | -0.229 |
| AGCTTGGG | -0.06 |
| GGTTTGCA | 0.13 |
| ACTACCTA | 0.161 |
| GGATTCCC | -0.244 |
| CATTGAGA | 0.0814 |
| GGGTTAAC | 0.403 |
| AGCAAACA | 0.0822 |
| CCAGGTCA | 0.121 |
| CAGCGTCA | -0.176 |
| AATCTGAT | -0.0529 |
| TGGCTCAA | -0.142 |
| CCTCTTAC | 0.046 |
| CGTTCAAA | 0.0627 |
| AGTTCCTG | -0.129 |
| CATTGCGA | -0.0237 |
| CCTGGACA | -0.0227 |
| TGCAACCA | 0.217 |
| GTGGTGAA | -0.0676 |
| CCTAGTAC | -0.0226 |
| CCAGGCAA | -0.00138 |

| Sequence | PBM E-score |
| --- | --- |
| CTGCACCA | -0.166 |
| CTTTTGTA | 0.162 |
| AGCGAGAC | -0.195 |
| CTCATGCC | -0.33 |
| ACGACGGG | -0.024 |
| CAGTAACC | 0.44 |
| CTTCTGGC | 0.0319 |
| AACTTTGT | 0.135 |
| GGTTATCA | 0.445 |
| ATTCCCCA | -0.128 |
| CACGGGCA | -0.293 |
| ATCACTTC | 0.0188 |
| CCCTTAAC | 0.0959 |
| AGACCCTC | 0.092 |
| GGGGGACA | -0.0784 |
| CGTGGAAG | -0.0481 |
| CGCCTTAA | 0.166 |
| GGTGTGGA | 0.0481 |
| CATTCACG | -0.0314 |
| GGACCTAA | 0.121 |
| CACGGGGC | -0.126 |
| CGCCGTGA | -0.0412 |
| AGAGGTCA | 0.41 |
| GGGTAACA | 0.334 |
| CACGCGTC | 0.0376 |

| Sequence | PBM E-score |
| --- | --- |
| ATATAATA | 0.155 |
| CGCCATGC | -0.0963 |
| ACTAGGGC | -0.163 |
| AAGGGGGG | -0.48 |
| CGCCGCCG | -0.0934 |
| ATCCAAAG | 0.174 |
| GTCCTAAC | 0.189 |
| CACAGCGC | -0.102 |
| CAATCGTA | -0.00286 |
| GGAGGGCA | -0.147 |
| CGGTCTAG | -0.0691 |
| AAAATACG | 0.0912 |
| CAATTTCA | -0.304 |
| ATTAACCG | 0.331 |
| ATGGATGC | 0.13 |
| CAGTACTG | -0.118 |
| GACTCTAC | -0.257 |
| TACTGGAA | 0.12 |
| AAGTTAGG | 0.0455 |
| AGTGTCAG | -0.055 |
| ACTCCATC | -0.00363 |
| ACTCGTCA | -0.117 |
| CTTAGGGA | -0.123 |
| CTAGCACA | -0.151 |
| ACGTGCAT | -0.0904 |

| Sequence | PBM E-score |
| --- | --- |
| TTCGACAA | 0.118 |
| ACTTCCCC | -0.219 |
| CCCCAACG | 0.212 |
| CGAGTAAC | 0.25 |
| GCTGCGGA | -0.135 |
| GGACCCTA | 0.159 |
| GTGTATCA | 0.132 |
| ACAACAAG | 0.0549 |
| CAGCACAC | -0.276 |
| CGCTGTCA | -0.209 |
| ACCAGTTA | 0.206 |
| AATCCTCG | -0.0575 |
| AGTGTCTC | -0.259 |
| CCGTTTAA | 0.12 |
| ACAGACTC | -0.215 |
| GATGTTGC | -0.143 |
| GCTGCCAA | -0.177 |
| CACCCACG | 0.123 |
| ATATGGCA | -0.117 |
| CACACAGG | -0.0209 |
| GAATGGTA | 0.202 |
| ATGGCAAC | 0.223 |
